Experimental data published in the supplement of paper PMC11383711.
Some of the results follow. Binding of human antibodies (heavy:light variable regions, tested as scFv in one mRNA-display pool) to influenza hemagglutinin, with or without the stem antibody CR9114 bound first. Score = (mean enrichment − median) / interquartile range of that screen; higher = more enriched, 0 = typical non-binder. Active = above the paper's cut-off per screen: stems 28; unblocked H1 Solomon Islands 5, H1 Michigan 3, H3 5, H5 19, H7 2.85, both B 5; blocked 9, 7, H5 10, H7 10, B Phuket 10, B Lee 11.5. Scores are scaled within each screen and are no affinities; replicates correlate at about 0.6 to 0.9, and antibodies rare in the pool are noisier.

B1: W85-3G10 (protein)
chain 1: EVQLVDSGGGVVRPGRSLRLSCAASGFTFSSYAMHWVRQAPGRGLEWVTFISHDGSNVYYADSVTGRFTISRDNSKNTLYLQMNSLRVEDTAVYYCARDYCSTSSCYVDYWGQGTLVTVSS
chain 2: NFMLTQPHSVSESPGKTVTISCTGSSGSIAYNYVQWYQQRPGSAPTTVIYEDNHRPSGVPDRFSGSVDSSSNSASLTISGLKTEDEADYYCQSYDSSNHVVFGGGTTADRP
B2: C1-3E05 (protein)
chain 1: VQLQESGPGLVTPSETLSLTCTVSGGSISSTIHYWGWIRQPPGKGLEWIGSVYYDGMTYHNPSLKSRVTMSADTSKNQFSLELSSVTAADTAVYFCARQQEGYYYYYGMDVWGQGTTVTVSS
chain 2: EIVLTQSPGTLSLSPGERATLSCRASQSVNSNYLAWYQQKPGQAPRLLIYGASSRATGIPDRFSGSGSGTDFTLTISRLEPEDFAVYYCQQYTSPGFTFGPGTKVDIK
B3: C8-A06 (protein)
chain 1: VQLVQSGVEVKKPGASVKVSCKTSGYTFTSFDIDWVRQAPGQGLEWMGWMNPNSGTTGYAQKFQGRVTMTRNTSISTAYMELSSLRSDDTAVYYCARGKSTITTYWFDPWGQGTLVTVSS
chain 2: DIVMTQSPDSLAVSLGERATINCKSSQTVLSNSNNENYLTWYQQKPGQPPRLLIYWASTRESGVPDRFTGSGSGTDFTLTISSLQAEDVAVYYCQQYYSNPYTFGQGTKVEIK
B4: SFV015-1F04 (protein)
chain 1: QVQLVESGGGVVQPGRSLRLSCTASGIIFSNYAMHWVRQAPGKGLEWVAVISYDGYIPYYTDSVQGRFIISRDNSKNTLYLEMNSLRAEDTAFYFCARDKYRDGDRLDYYYYMDLWGQGTTVTVSS
chain 2: EIVLTQSPVTLSLSPGERATLSCRASQSVSNYLAWYQQTPGQPPRLLIYDASHRATGIPTRFSGAVSGTDFTLTISSLEPEDFAVYYCQLRSNWPPLFTFGPGTKVDIK
B5: W85-1E02 (protein)
chain 1: EVQLVESGGGVVQSGRSLRLSCAASGFTFSSYALHWVRQAPGKGLEWVAVISYDASEKYYADSVKGRFTISRDKSKKTLYLQMNSLRAEDTAVYYCARSHFYYDSGDYWGQGTLVTVSS
chain 2: DIQMTQSPSTLSASVGDKVTITCRASQSINRWLAWYQQKPGKAPKLLIYRASSLESGVPSRFSGSGSGTEFTLTISSLQPDDFATYFCQHYEGYSWTFGQGTKVDIK
B6: R95-2A07 (protein)
chain 1: QVQLVQSGSEVKKPGASVKVFCKASGYTFFNHYIHWVRQAPGQRLEWLGWVNTGNGDTKYAQKFQGRVTITRDTAARAAYMELSSLMSEDTAIYYCAREGTLGWGWDLRNEFYFMDVWGTGTTVIVSS
chain 2: QSALTQPPSVSGAPGQRVTISCTGSSSNIGAGFEVHWYQQLPGSAPKLLISGSGARPSGVPDRFSASKSATSASLAITGLQAEDEADYYCQSYDSTLSGVLFGGGTKLTVL

Tests used:
Assay in all cases: mRNA display binding score; higher = more enriched on the antigen
[1] = biological target: Influenza A H1N1 A/Michigan/45/2015 hemagglutinin ectodomain
Protocol: (§1)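 A pool of natively paired antibodies, displayed as scFv on mRNA, was selected once on antigen-coated beads and sequenced before and after; two replicates.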

[2] = biological target: Influenza A H1N1 A/Solomon Islands/3/2006 hemagglutinin ectodomain
Protocol: as §1

[3] = biological target: Influenza A H3N2 A/Singapore/INFIMH-16-0019/2016 hemagglutinin ectodomain; settings: antigen blocked with: nothing
Protocol: as §1

[4] = biological target: Influenza A H5N1 A/Qinghai/1A/2005 hemagglutinin ectodomain
Protocol: as §1

[5] = biological target: Influenza A H7N9 A/Shanghai/2/2013 hemagglutinin ectodomain
Protocol: as §1

[6] = biological target: Influenza B/Lee/1940 hemagglutinin ectodomain
Protocol: as §1

[7] = biological target: Influenza B/Phuket/3073/2013 hemagglutinin ectodomain
Protocol: as §1

[8] = antigen blocked with: 2 µM CR9114 IgG

Row | Binder | mRNA display binding score [1, 8] | mRNA display binding score ([1]; antigen blocked with: nothing) | mRNA display binding score [2, 8] | mRNA display binding score ([2]; antigen blocked with: nothing) | mRNA display binding score [3] | mRNA display binding score [4, 8] | mRNA display binding score ([4]; antigen blocked with: nothing) | mRNA display binding score [5, 8] | mRNA display binding score ([5]; antigen blocked with: nothing) | mRNA display binding score [6, 8] | mRNA display binding score ([6]; antigen blocked with: nothing) | mRNA display binding score [7, 8] | mRNA display binding score ([7]; antigen blocked with: nothing)
1 | B1 | inactive: 0.124 | inactive: 1.43 | inactive: 0.365 | inactive: -0.0911 | inactive: -0.000737 | inactive: 1.34 | inactive: 0.986 | inactive: 0.583 | inactive: 1.64 | inactive: -1.35 | inactive: -0.251 | inactive: 0.153 | inactive: 0.115
2 | B2 | inactive: 0.0142 | inactive: -0.445 | inactive: -0.18 | inactive: -0.358 | inactive: -0.402 | inactive: 0.526 | inactive: 2.64 | inactive: -0.136 | inactive: -0.282 | inactive: 0.0343 | inactive: 0.13 | active: 36.1 | active: 36.7
3 | B3 | inactive: -0.135 | inactive: 0.271 | inactive: -0.317 | inactive: 0.137 | inactive: 0.309 | inactive: -0.312 | inactive: -0.0913 | inactive: -0.747 | inactive: 0.334 | inactive: -0.383 | inactive: -0.173 | inactive: -0.256 | inactive: -0.0903
4 | B4 | inactive: -0.123 | inactive: 2.07 | inactive: 0.336 | inactive: 2.55 | inactive: 1.2 | inactive: 0.3 | inactive: 0.883 | inactive: 1.16 | inactive: 2.13 | inactive: -0.349 | inactive: -0.00628 | inactive: 0.344 | inactive: 0.713
5 | B5 | inactive: 1.1 | inactive: 1.61 | inactive: 2.11 | inactive: 1.12 | inactive: 1.64 | inactive: 1.22 | inactive: 0.518 | inactive: 1.61 | inactive: 2.52 | inactive: 0.116 | inactive: 0.0713 | inactive: 1.03 | inactive: 0.166
6 | B6 | inactive: 0.454 | inactive: 0.711 | inactive: -0.215 | inactive: 0.449 | inactive: -0.178 | inactive: -0.393 | inactive: 2.69 | inactive: -0.601 | inactive: -0.0496 | inactive: 3.77 | active: 28.7 | inactive: -0.135 | active: 9.46
